# Source: the supplement of paper PMC11417369
# The other results are listed elsewhere or left out.
# System: PfSIP2 AP2 domain 1 (GST-tagged)
# Assay: gcPBM binding intensity (ln(normalized median fluorescence intensity)); higher = stronger DNA binding
# Method in brief: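 GST-tagged P. falciparum DNA-binding domains produced in E. coli were incubated for 1 h on an Agilent 4 × 180k array of primer-extended double-stranded 36-bp intergenic genomic probes with negative controls. Binding intensity is the highest Masliner-normalised natural-log median intensity across replicate spots of either probe orientation, with bound protein detected by Alexa488 anti-GST antibody at 488 nm.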
row,Sequence,gcPBM binding intensity (ln)
1,AACATATTTTTAAATACACACACATAAAAAAAAAAA [CACACA_site8279],7
2,TCATATTTGCCTTTTTATTTAGAACACAAAAAAAAA [CACACA_negctrl_site1152],7.23
3,TATATATAATATACATGTACAAATGTATTTAAAAAT [XGTACX_site6090],7.07
4,AGAAAATACACGCATACACACACACCCACCCACATA [CACACA_site8115],7.16
5,CAAAAAAAGAAAGCTACACACATTTATGTGCTATAT [CACACA_site2777],6.69
6,ATTATAATAGTTAAATGTACACACTAACTACATGGA [XGTACX_site6918],7.02
7,AATTAAAAATTCAAGTGTACTTTTATATTATTATAC [XGTACX_site4106],7.31
8,ATTCGGATATATATCACACATAACTTTAATAATATA [CACACA_site5720],6.89
9,TAAATAGCCAAACGCACACCCACAAAAAAAAAAAAA [CACACA_site1554],7.34
10,AGAGAATATTTCCACACATGCAAATGTTATATGTAA [TGCATGCA_site282],8.29
11,ATTGATTTTTAATATACACACATAAGGACCACAAAA [CACACA_site4344],7.45
12,AATACGCATTTTAGTACACACTTAAAAAGTTATTTT [CACACA_site7401],7.03
13,AATTATATTAATTCTTCATTACATTTTAAAATATTA [XGTACX_negctrl_site510],6.88
14,TTCGTTATATTTTGATGTACTGATTCATATATATAT [XGTACX_site1835],8.52
15,TGCTATTATTTATGTACACACCAATTTATTTATAAT [CACACA_site6029],7.55
16,TTATAATATAAAAATAAATAAATAAATAAATAAATA [CACACA_negctrl_site1587],7.22
17,TAATATTTATTCTATTGTACATAAAATATATATATA [XGTACX_site7132],8.65
18,GGAAAGACATTACACAGTACCCAGGAAATCTACGGA [XGTACX_site2002],6.65
19,TCAACATTTAAAAATAGTACTCATAAACCTTTCGAA [XGTACX_site4111],6.7

row,Sequence,gcPBM binding intensity (ln)
1,ATTATATATGTATAAATATGCTATATATATATATAT [GTGCAC_negctrl_site430],9.4
2,ATAAATAAAAAACACACACACACACCCAAAAAAAAA [CACACA_site2624],7
3,TATACATATGTATGCACACATACATACACATAGAAT [CACACA_site3480],7.15
4,TATATTATTTAAAAAGTGCAGTTACAAGATGAACCT [GTGCAC_site9641],8.2
5,TTCAAACATATTAATTGTACATACAACAAAACCATG [XGTACX_site5149],7.13
6,AATATATTTTAGAGTTTTATATATTTTATGCATATA [GTGCAC_negctrl_site710],7
7,ATATTATTTTATGCTACACACATTTTCTCTTATAAA [CACACA_site943],7.23
8,TGGAAAATAAAGTACGCACACAAAAATTCTCTTCAT [CACACA_site2327],7.16
9,AAAAAAAAAAAACACACACACACATTCAATATAAAA [CACACA_site40],7.17
10,ATATGTATTTATGTATTTATGTATTTTTATATTTTT [CACACA_negctrl_site595],6.85
11,GGAATTTTTATTCGAAGTACTGTTGTGAGTAATAAA [XGTACX_site8599],7.11
12,TAAATGTTAAAATTCACACAAATATGTGCGGAATAT [CACACA_site5055],6.92
13,TTTGACTAAATTAAATATTAAAGTATGGATTATTCT [CACACA_negctrl_site833],6.66
14,ACCCATTTGATAATAATGCACACCACATATATTTAT [CACACA_site3061],7.54
15,TGCAAGGAACAACACACACACACATAAATGTATATA [CACACA_site8149],7.11
16,ATATATAATATATACACACACATGTATATATAAATA [CACACA_site1968],7.27
17,AAGACCATATGAATAATGCACACGTTTTAAAATATT [CACACA_site2323],7.37
18,TTTCCATTTTCTCTATGTACATAAAAATGAGATAAA [XGTACX_site5689],7.17
19,CACACGCACGGACACACACACAAAAAAAAAAAGAAA [CACACA_site6378],7.72

row,Sequence,gcPBM binding intensity (ln)
1,GTTTGGTGGTGTTTTGGTACGTACGGGGGTGTATGT [XGTACX_site1211],8.28
2,AAATAAATCTTATGCACACAAATAATTAATGAAACA [CACACA_site5011],8.12
3,TCTTTGTACTTTCACATGTACACCCAAATGGAAATT [CACACA_negctrl_site1442],7.22
4,ATATTTATGGAATATACACACATGTATAATTACATA [CACACA_site7045],7.01
5,AGGACTAATATTTGAACACACATATAATAAATACAT [CACACA_site6068],6.95
6,ATTTTTTTTTCTTAATGTACATACCAAAAAGAAAGA [XGTACX_site5471],7.45
7,TATAATATATTTTAATGTACGTACATCCCGATTAAT [XGTACX_site7651],7.26
8,TTTGTCTGCATACGCACACACGTGTACCATCTTATG [CACACA_site4784],7.04
9,TATTAATATATATGTTGTACAAGTTTTTTTTTTTTT [XGTACX_site5865],7.04
10,GATAAAATATGTTGCCGTACATATTCATATACTTAA [XGTACX_site4776],7.01
11,TTCTATATTTCTTTTTGTACATATAAATTCAAATAA [XGTACX_site2476],7.64
12,ATATAAAATAATACATGTACATATTATATATATATA [XGTACX_site1082],8.89
13,TATATACGCATTTTTATACACACTTGTTTTATAAAA [CACACA_site727],7.28
14,TATTTATATTCATAATGTACATTCAATTATTGTTTT [XGTACX_site4191],7.11
15,TTCTTTATTTTTTCTACACACATTATATATTCAAAG [CACACA_site5866],7.62
16,AAATATTAAATGACAAAAAAAAAAAAAAAAGGGGTT [CACACA_negctrl_site951],6.99
17,TATTTTGAAAATAAAAGTACAAATTTTATATTTAAA [XGTACX_site3238],6.78
18,TAAAAGTTCACCTGTACACACATATATATATGTACA [CACACA_site1707],7.08
